Measurements from a collection of fitness landscapes (doi:10.1016/j.celrep.2020.107928).
Whole data set: some 81,000 sequences, median “one-hybrid fitness for binding NBS DNA” near -0.1, cut for the highest 2% near 0.36. The list shows a part of the results.

B1: Caulobacter ParB omega fusion; a variant is named by its letters at X, in order, B8GW30 (parent)
chain: MESVVVGEPGMSEGRRGLGRGLSALLGEVDAAPAQAPGEQLGGSREAPIEILQRNPDQPRRTFREEDLEDLSNSIREKGVLQPILVRPSPDTAGEYQIVAGERAWRAAQRAGLKTVPIMVRELDDLAVLEIGIIENVQRADLNVLEEALSYKVLMEKFERTQENIAQTIGKSXSHVANXMRLLXLPDEVQSYLVSGELTAXHARAIAAAADPVALAKQIIEGGLSVRETEALARKAPNLSAGKSKGGRPPRVKDTDTQALESDLSSVLGLDVSIDHRGSTGTLTITYATLEQLDDLCNRLTRGI

Variants of: B1
Test: one-hybrid fitness for binding NBS DNA (the Noc-binding site; scaled: cognate 1, non-cognate 0); higher = stronger binding
Conditions: with NBS DNA site
Summary of the method: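 Fitness is the rescaled log change in variant-to-wild-type read ratio, measured by Illumina sequencing of plasmids before and after bacterial one-hybrid selection. The scale puts cognate at 1 and non-cognate at 0. Selection of Caulobacter ParB libraries, four specificity codons randomised, took place in E. coli USO with a HIS3 reporter, site 19 bp from the promoter, over 48 hours at 37°C on M9-minus-histidine with 0.1 mM IPTG and 5 mM 3-AT.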

WEHT and HSQM cannot be ordered by “one-hybrid fitness for binding NBS DNA” value: no more than 0.2 for the first, no more than 0.2 for the second.

HPLF and LKDR cannot be ordered by “one-hybrid fitness for binding NBS DNA” value: no more than 0.2 for the first, no more than 0.2 for the second.

CALH and GMDV cannot be ordered by “one-hybrid fitness for binding NBS DNA” value: no more than 0.2 for the first, no more than 0.2 for the second.

TPRY and SIPD cannot be ordered by “one-hybrid fitness for binding NBS DNA” value: no more than 0.2 for the first, no more than 0.2 for the second.

NHQR and NTCL cannot be ordered by “one-hybrid fitness for binding NBS DNA” value: no more than 0.2 for the first, no more than 0.2 for the second.

RKCE and SLAM cannot be ordered by “one-hybrid fitness for binding NBS DNA” value: no more than 0.2 for the first, no more than 0.2 for the second.

SLTN and ISRI cannot be ordered by “one-hybrid fitness for binding NBS DNA” value: no more than 0.2 for the first, no more than 0.2 for the second.

TTER and EYAC cannot be ordered by “one-hybrid fitness for binding NBS DNA” value: no more than 0.2 for the first, no more than 0.2 for the second.

HDLM and YKRW cannot be ordered by “one-hybrid fitness for binding NBS DNA” value: no more than 0.2 for the first, no more than 0.2 for the second.

APPG and TRVI cannot be ordered by “one-hybrid fitness for binding NBS DNA” value: no more than 0.2 for the first, no more than 0.2 for the second.

RMIF and KAWS cannot be ordered by “one-hybrid fitness for binding NBS DNA” value: no more than 0.2 for the first, no more than 0.2 for the second.

RIWC and LFNC cannot be ordered by “one-hybrid fitness for binding NBS DNA” value: no more than 0.2 for the first, no more than 0.2 for the second.

YEVP and QIVN cannot be ordered by “one-hybrid fitness for binding NBS DNA” value: no more than 0.2 for the first, no more than 0.2 for the second.

SHRV and SMHN cannot be ordered by “one-hybrid fitness for binding NBS DNA” value: no more than 0.2 for the first, no more than 0.2 for the second.

LIYC and NDTI cannot be ordered by “one-hybrid fitness for binding NBS DNA” value: no more than 0.2 for the first, no more than 0.2 for the second.

QVTF and QREL cannot be ordered by “one-hybrid fitness for binding NBS DNA” value: no more than 0.2 for the first, no more than 0.2 for the second.

VDFS and EGVG cannot be ordered by “one-hybrid fitness for binding NBS DNA” value: no more than 0.2 for the first, no more than 0.2 for the second.

HQSL and DFSH cannot be ordered by “one-hybrid fitness for binding NBS DNA” value: no more than 0.2 for the first, no more than 0.2 for the second.

Going from ITPM to RMRA, the “one-hybrid fitness for binding NBS DNA” value rises from no more than 0.2 to 0.409.

HWGA and NTMG cannot be ordered by “one-hybrid fitness for binding NBS DNA” value: no more than 0.2 for the first, no more than 0.2 for the second.

PIVG and KLNI cannot be ordered by “one-hybrid fitness for binding NBS DNA” value: no more than 0.2 for the first, no more than 0.2 for the second.

SKSN and FTHL cannot be ordered by “one-hybrid fitness for binding NBS DNA” value: no more than 0.2 for the first, no more than 0.2 for the second.

FCPG and FALV cannot be ordered by “one-hybrid fitness for binding NBS DNA” value: no more than 0.2 for the first, no more than 0.2 for the second.

VQFL and KHYC cannot be ordered by “one-hybrid fitness for binding NBS DNA” value: no more than 0.2 for the first, no more than 0.2 for the second.

GTIR and PSAF cannot be ordered by “one-hybrid fitness for binding NBS DNA” value: no more than 0.2 for the first, no more than 0.2 for the second.

ERVF and LVTQ cannot be ordered by “one-hybrid fitness for binding NBS DNA” value: no more than 0.2 for the first, no more than 0.2 for the second.

PPRW and CVNW cannot be ordered by “one-hybrid fitness for binding NBS DNA” value: no more than 0.2 for the first, no more than 0.2 for the second.

GVLV and FSAS cannot be ordered by “one-hybrid fitness for binding NBS DNA” value: no more than 0.2 for the first, no more than 0.2 for the second.

ETSI and PFLD cannot be ordered by “one-hybrid fitness for binding NBS DNA” value: no more than 0.2 for the first, no more than 0.2 for the second.

WSWL and ETLG cannot be ordered by “one-hybrid fitness for binding NBS DNA” value: no more than 0.2 for the first, no more than 0.2 for the second.

RYLG and RVWA cannot be ordered by “one-hybrid fitness for binding NBS DNA” value: no more than 0.2 for the first, no more than 0.2 for the second.

QNWT and KVEE cannot be ordered by “one-hybrid fitness for binding NBS DNA” value: no more than 0.2 for the first, no more than 0.2 for the second.

DESI and EAGA cannot be ordered by “one-hybrid fitness for binding NBS DNA” value: no more than 0.2 for the first, no more than 0.2 for the second.

DDTL and YQKR cannot be ordered by “one-hybrid fitness for binding NBS DNA” value: no more than 0.2 for the first, no more than 0.2 for the second.

IGPS and YFTC cannot be ordered by “one-hybrid fitness for binding NBS DNA” value: no more than 0.2 for the first, no more than 0.2 for the second.

KITW and FQSN cannot be ordered by “one-hybrid fitness for binding NBS DNA” value: no more than 0.2 for the first, no more than 0.2 for the second.

EDMR and YQMG cannot be ordered by “one-hybrid fitness for binding NBS DNA” value: no more than 0.2 for the first, no more than 0.2 for the second.

Going from RYAR to RSAR, the “one-hybrid fitness for binding NBS DNA” value rises from 0.43 to 0.438.

TIHF and RWGN cannot be ordered by “one-hybrid fitness for binding NBS DNA” value: no more than 0.2 for the first, no more than 0.2 for the second.

GDGR and NEGY cannot be ordered by “one-hybrid fitness for binding NBS DNA” value: no more than 0.2 for the first, no more than 0.2 for the second.

EFDL and THPS cannot be ordered by “one-hybrid fitness for binding NBS DNA” value: no more than 0.2 for the first, no more than 0.2 for the second.

AMTC and DGNP cannot be ordered by “one-hybrid fitness for binding NBS DNA” value: no more than 0.2 for the first, no more than 0.2 for the second.

TANL and PEDT cannot be ordered by “one-hybrid fitness for binding NBS DNA” value: no more than 0.2 for the first, no more than 0.2 for the second.

Compared with KPVV, RRRN is higher in “one-hybrid fitness for binding NBS DNA” value: no more than 0.2 for the first, 0.618 for the second.

LQKD and LRIM cannot be ordered by “one-hybrid fitness for binding NBS DNA” value: no more than 0.2 for the first, no more than 0.2 for the second.

STMG and RGAA cannot be ordered by “one-hybrid fitness for binding NBS DNA” value: no more than 0.2 for the first, no more than 0.2 for the second.

ATPN and APWC cannot be ordered by “one-hybrid fitness for binding NBS DNA” value: no more than 0.2 for the first, no more than 0.2 for the second.

LGDQ and FNHR cannot be ordered by “one-hybrid fitness for binding NBS DNA” value: no more than 0.2 for the first, no more than 0.2 for the second.

AIYR and QVAW cannot be ordered by “one-hybrid fitness for binding NBS DNA” value: no more than 0.2 for the first, no more than 0.2 for the second.

SSPM and PVVE cannot be ordered by “one-hybrid fitness for binding NBS DNA” value: no more than 0.2 for the first, no more than 0.2 for the second.

SSNV and ETIM cannot be ordered by “one-hybrid fitness for binding NBS DNA” value: no more than 0.2 for the first, no more than 0.2 for the second.

TRVG and WCKT cannot be ordered by “one-hybrid fitness for binding NBS DNA” value: no more than 0.2 for the first, no more than 0.2 for the second.

HIQG and ESPS cannot be ordered by “one-hybrid fitness for binding NBS DNA” value: no more than 0.2 for the first, no more than 0.2 for the second.

TMWS and GPIC cannot be ordered by “one-hybrid fitness for binding NBS DNA” value: no more than 0.2 for the first, no more than 0.2 for the second.

First: WING
Second: RHMT
The “one-hybrid fitness for binding NBS DNA” value of the first is lower: no more than 0.2 for the first, 0.363 for the second.

QPRW and HARR cannot be ordered by “one-hybrid fitness for binding NBS DNA” value: no more than 0.2 for the first, no more than 0.2 for the second.

RLYA and TIKA cannot be ordered by “one-hybrid fitness for binding NBS DNA” value: no more than 0.2 for the first, no more than 0.2 for the second.

RVLF and CCYG cannot be ordered by “one-hybrid fitness for binding NBS DNA” value: no more than 0.2 for the first, no more than 0.2 for the second.

TFSW and RARN cannot be ordered by “one-hybrid fitness for binding NBS DNA” value: no more than 0.2 for the first, no more than 0.2 for the second.

FCLC and CGLK cannot be ordered by “one-hybrid fitness for binding NBS DNA” value: no more than 0.2 for the first, no more than 0.2 for the second.

TSQQ and CKKC cannot be ordered by “one-hybrid fitness for binding NBS DNA” value: no more than 0.2 for the first, no more than 0.2 for the second.

First: RKGH
Second: WKKG
The “one-hybrid fitness for binding NBS DNA” value of the first is higher: 0.301 for the first, no more than 0.2 for the second.

HMWS and VERP cannot be ordered by “one-hybrid fitness for binding NBS DNA” value: no more than 0.2 for the first, no more than 0.2 for the second.

TDLS and RTKD cannot be ordered by “one-hybrid fitness for binding NBS DNA” value: no more than 0.2 for the first, no more than 0.2 for the second.

TYPC and LNES cannot be ordered by “one-hybrid fitness for binding NBS DNA” value: no more than 0.2 for the first, no more than 0.2 for the second.

EYHC and PYKT cannot be ordered by “one-hybrid fitness for binding NBS DNA” value: no more than 0.2 for the first, no more than 0.2 for the second.

HTHP and YLAQ cannot be ordered by “one-hybrid fitness for binding NBS DNA” value: no more than 0.2 for the first, no more than 0.2 for the second.

Compared with QMNY, VQYG is lower in “one-hybrid fitness for binding NBS DNA” value: 0.212 for the first, no more than 0.2 for the second.

MRMM and CDMS cannot be ordered by “one-hybrid fitness for binding NBS DNA” value: no more than 0.2 for the first, no more than 0.2 for the second.

HRPI and HELN cannot be ordered by “one-hybrid fitness for binding NBS DNA” value: no more than 0.2 for the first, no more than 0.2 for the second.

QPPG and SHRE cannot be ordered by “one-hybrid fitness for binding NBS DNA” value: no more than 0.2 for the first, no more than 0.2 for the second.

EDKF and RGNR cannot be ordered by “one-hybrid fitness for binding NBS DNA” value: no more than 0.2 for the first, no more than 0.2 for the second.

YGTF and LLCM cannot be ordered by “one-hybrid fitness for binding NBS DNA” value: no more than 0.2 for the first, no more than 0.2 for the second.

NMFI and RYEA cannot be ordered by “one-hybrid fitness for binding NBS DNA” value: no more than 0.2 for the first, no more than 0.2 for the second.

QYVL and RNMR cannot be ordered by “one-hybrid fitness for binding NBS DNA” value: no more than 0.2 for the first, no more than 0.2 for the second.

GNVC and QNMW cannot be ordered by “one-hybrid fitness for binding NBS DNA” value: no more than 0.2 for the first, no more than 0.2 for the second.

In the case of GKNC, the “one-hybrid fitness for binding NBS DNA” value is reported as no more than 0.2.
